Measured values as given in PubChem BioAssay AID602340 (Broad Institute, 2012).
The campaign covered roughly 330,000 compounds. About 2,600 (0.79%) were called active. The inconclusive results got no clear call from the source; some entries with a clear call stand among them for comparison.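 Rule for the calls: active = mean ATP rescue above about 67%, or every replicate alone reaching that limit (limit read from the data, passing the limit was not always enough); inconclusive = no clear call, values can overlap the other calls; inactive = mean under the limit and some replicate under it.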

experiment: suppressors of statin myotoxicity in C2C12 myotubes, primary screen, cell-based, single point, plate reader (AID 602340); conditions: C2C12 myotubes + simvastatin, ATP luminescence, 48 h; at 7.49 µM; stronger effect = higher value; scaled: DMSO 0, geranylgeraniol control 100;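 note: myotubes were challenged with 10 µM simvastatin during compound exposure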

Compound | rescue of ATP level
COc1cccc(CNC(=O)N[C@@H](CC(C)C)C(=O)O)c1 | inactive: -5.38%
CCC(=O)NCCn1c(C)cc2ccccc21 | inactive: -11.2%
COc1ccc(CC(=O)NC(CC(=O)O)c2cccc([N+](=O)[O-])c2)cc1 (centres undefined) | active: 122%
COc1ccc(S(=O)(=O)Nc2ccc3c(c2)C(=O)N([C@@H](C)CO)C[C@H](C)[C@H](CN(C)C(=O)Nc2cccc4ccccc24)OCCCC[C@H](C)O3)cc1 | inconclusive: 91.9%
C[C@@H]1CN([C@@H](C)CO)S(=O)(=O)c2ccc(-c3ccncc3)cc2O[C@H]1CN(C)C(=O)C1CCC1 | inactive: -18.4%
O=S(=O)(N[C@@H]1CC[C@H](CCn2cc(-c3cccnc3)nn2)O[C@@H]1CO)c1ccc(Cl)cc1 | inactive: 11.5%
CC(C)NC(=O)N1[C@H](CO)[C@@H](c2ccc(-c3ccc(F)cc3)cc2)[C@@H]1C#N | inconclusive: 71.7%
Nc1nc(-c2cccc(NS(=O)(=O)c3ccccc3)c2)cs1 | inconclusive: 110%
COC(=O)c1cc(Cl)c(NC(=O)/C=C/c2ccc(Cl)cc2)cc1OC | inconclusive: 71.5%
COc1ccc(NC(=O)N(C)C[C@@H]2Oc3c(NC(=O)c4ccncc4)cccc3C(=O)N([C@H](C)CO)C[C@@H]2C)cc1 | inconclusive: 72.2%
CCCCOC(=O)Cn1c(=O)c2c(nc3n2CCCCN3c2ccc(C)cc2)n(C)c1=O | active: 103%
Cc1ccc(S(=O)(=O)Nc2ccc3c(c2)CC(=O)N([C@@H](C)CO)C[C@@H](C)[C@@H](CN(C)S(=O)(=O)c2ccc(Cl)cc2)O3)cc1 | inactive: 5.62%
Fc1cccc(C[n+]2csc3ccccc32)c1 | inconclusive: 65.4%
OCCN1CCN(Cc2cccc(Oc3ccc(Cl)cc3)c2)CC1 | inconclusive: 85.9%
C[C@@H](O)C#Cc1ccc([C@@H]2[C@H]3CN(C(=O)c4cccc(F)c4)CCCCN3[C@H]2CO)cc1 | inactive: -3.79%
CC(NCCOc1ccccc1F)C(=O)Nc1ccc(S(N)(=O)=O)cc1 (centres undefined) | inconclusive: 1.64%
C=C(C)c1cccc(C(C)(C)NC(=O)NCc2ccc(OC)c(OC)c2)c1 | inconclusive: 81.4%
CC(C)CCNC(=O)CN(Cc1ccc(F)cc1)C(=O)CCC(=O)Nc1ccccn1 | inconclusive: 75.4%
Cc1c(C(=O)Nc2nccs2)oc2ccc(Br)cc12 | inactive: -13.2%
CCC(=O)N1CCc2cc(S(=O)(=O)CCC(=O)N3CCc4ccccc4C3)ccc21 | active: 76.3%
COc1ccc(CNC(=O)C(C)N2C(=O)COc3ccc(C)cc32)c(OC)c1 (centres undefined) | inconclusive: 0.143%
Cc1[nH]nc2c1C(c1cccc(O)c1)C1=C(CC(C)(C)CC1=O)N2 (centres undefined) | inconclusive: 69.5%
COc1ccc(-c2cc(NC=O)c3ncc(-c4cccc(C(=O)NCCN(C)C)c4)n3c2)cc1 | inconclusive: 65.1%
C[C@@H]1CN([C@@H](C)CO)C(=O)c2cc(C#Cc3ccc(F)cc3)cnc2O[C@H]1CN(C)C(=O)c1ccccc1F | inconclusive: 65.7%
COc1ccc(S(=O)(=O)N[C@@H]2CC[C@@H](CCNC(=O)c3ccccc3F)O[C@@H]2CO)cc1 | inactive: -3.32%

Compound | rescue of ATP level
CN(c1ncnc(N)c1[N+](=O)[O-])C1CCCCC1 | inconclusive: 68.2%
Cc1ccc(NC(=O)c2cc(F)c(F)cc2Cl)nc1 | inconclusive: 4.28%
CCCCCOc1ccc(/C=C/c2c([N+](=O)[O-])c(=O)n(C)c(=O)n2C)cc1 | inconclusive: 171%
CCOC(=O)c1c(NC(C)=O)sc2c(OC)cccc12 | inconclusive: 65.3%
Cc1ccc(C(O)CN2C3=NCCN3c3ccccc32)cc1 (centres undefined) | active: 121%
COc1ccc(CN(C)C[C@@H]2Oc3ccc(NS(=O)(=O)c4ccc(C)cc4)cc3CC(=O)N([C@H](C)CO)C[C@H]2C)cc1 | inconclusive: 76%
Cc1ccc2nc(C(F)(F)F)c(C#N)c(N)c2c1 | inconclusive: 66.1%
COc1cccc(-c2cnc3c(c2)C(=O)N([C@H](C)CO)C[C@H](C)[C@H](CN(C)S(=O)(=O)c2cccs2)O3)c1 | inconclusive: 74.2%
CCCN1C(=O)/C(=C2\SC(N3CCCCC3)=NC2=O)c2ccccc21 | inconclusive: 69.5%
COc1ccc(/C=N/NC(=S)Nc2ccccc2)cc1COc1ccc(Br)cc1 | inconclusive: 6.39%
O=C(c1cccc(F)c1)N1C[C@@H]2[C@H](c3ccccc31)[C@H](CO)N2C(=O)C1CC1 | inactive: -0.914%
C[C@H](CO)N1C[C@H](C)[C@@H](CN(C)C(=O)C2CCC2)Oc2ncc(C#Cc3cccc(F)c3)cc2C1=O | inconclusive: 76.6%
C[C@@H]1CN([C@H](C)CO)C(=O)c2cc(NC(=O)Cc3ccccc3)ccc2O[C@@H](C)CCCCO[C@@H]1CN(C)Cc1ccc(C(F)(F)F)cc1 | inconclusive: 72.6%
CO[C@H]1CN(C)C(=O)c2ccc(NC(C)=O)cc2OC[C@H](C)N(C(=O)c2ccccc2)C[C@@H]1C | inactive: 13.3%
C[C@@H]1CN([C@H](C)CO)C(=O)c2c(c3ccccc3n2C)-c2ccccc2CO[C@@H]1CN(C)C(=O)[C@@H]1CCCN1C | inactive: -5.56%
COC(=O)Cn1cc(C(=O)OC)c2ccccc21 | active: 98.4%
COc1ccccc1C1CN(c2ccc(F)cc2F)N=C1c1cccs1 (centres undefined) | inconclusive: 74.8%
OCCNc1nc(-c2ccccc2)nc2c1oc1ccccc12 | inconclusive: 73.1%
C[C@@H]1CCCCO[C@@H](CN(C)CC2CCCCC2)[C@@H](C)CN([C@H](C)CO)C(=O)c2cc(NC(=O)Nc3ccc4c(c3)OCO4)ccc2O1 | inconclusive: 74.4%
Cc1ccc(OCC(=O)N/N=C/c2ccc([N+](=O)[O-])o2)cc1 | inconclusive: 75.6%
CCn1c(SCC(=O)Nc2nc(C)c(C(=O)OC)s2)nnc1C(C)C | active: 81.8%
COc1ccc(CN(C)C[C@@H]2Oc3ccc(NC(=O)CCC(F)(F)F)cc3CC(=O)N([C@H](C)CO)C[C@H]2C)cc1 | active: 102%
COc1ccc(C2CC(c3cccs3)=Nc3ccccc3S2)cc1 (centres undefined) | inconclusive: 88.1%
O=C(COC(=O)C1CC1)Nc1ccc2[nH]c(=O)[nH]c2c1 | inactive: 4.96%
C[C@@H]1CN([C@@H](C)CO)C(=O)Cc2cc(NC(=O)Nc3cccc4ccccc34)ccc2O[C@H]1CN(C)Cc1ccc(Oc2ccccc2)cc1 | inconclusive: 69.4%

Compound | rescue of ATP level
C=CCOc1ccc(C(c2c(C)n(C)n(-c3ccccc3)c2=O)c2c(C)n(C)n(-c3ccccc3)c2=O)cc1 | inconclusive: 34.7%
COc1ccc(CN(C)C[C@@H]2Oc3ccc(NC(=O)NC(C)C)cc3CC(=O)N([C@@H](C)CO)C[C@H]2C)cc1 | inactive: 7.07%
CNC[C@@H]1Oc2c(NC(=O)Nc3c(C)noc3C)cccc2C(=O)N([C@H](C)CO)C[C@@H]1C | inconclusive: 68.5%
COc1ccc(NC(=O)Nc2ccc3c(c2)C(=O)N([C@@H](C)CO)C[C@H](C)[C@@H](CN(C)C(=O)Nc2ccc(C(F)(F)F)cc2)O3)cc1 | inconclusive: 66.9%
COc1cccc(N(CC(=O)NC2CCCC2)C(=O)Cn2nnc(-c3ccc(C)o3)n2)c1 | inconclusive: 68.4%
C[C@H](CO)N1C[C@H](C)[C@@H](CN(C)Cc2ccc(Cl)c(Cl)c2)Oc2ccc(NC(=O)c3ccncc3)cc2CC1=O | active: 133%
Cc1ccc(S(=O)(=O)Nc2ccc3c(c2)CC(=O)N([C@H](C)CO)C[C@@H](C)[C@@H](CN(C)Cc2ccc(Cl)c(Cl)c2)O3)cc1 | active: 116%
COc1cc(SC)ccc1C(=O)NC1CCCCC1 | active: 80.8%
C[C@H](CO)N1C[C@H](C)[C@@H](CN(C)C(=O)Nc2cccc3ccccc23)Oc2c(NC(=O)c3ccc(-c4nccs4)cc3)cccc2C1=O | inactive: 40.1%
S=c1[nH]c(-c2cccs2)cn1-c1ccccc1 | inconclusive: 66%
C[C@@H]1CN([C@H](C)CO)S(=O)(=O)c2ccc(-c3ccccc3)cc2O[C@@H]1CN(C)Cc1ccncc1 | inactive: -19.1%
Cc1ccc(C(=O)NCCSc2ccccc2)cc1S(=O)(=O)Nc1ccccc1 | inconclusive: 70.4%
CCC(C)[C@H](NC(=O)c1cc2cc(Cl)ccc2n1C)C(=O)N1CCC[C@H]1C(=O)O (some centres undefined) | inactive: 10.7%
C=C(C)COC(=O)c1ccccc1C(=O)OCC1(C)CO1 (centres undefined) | active: 98.1%
O=C(Nc1ccc(Nc2ccccc2)cc1)c1ccc(Br)o1 | inactive: -10.4%
Cc1cc(NS(=O)(=O)c2ccc(Cl)cc2)nn1CC(=O)NCc1ccco1 | active: 97.8%
COc1ccc(NC(=O)Nc2cccc3c2O[C@@H](CN(C)Cc2ccc(Oc4ccccc4)cc2)[C@@H](C)CN([C@@H](C)CO)C3=O)cc1 | inconclusive: 67.4%
CC(C)NC(=O)N1[C@@H](C#N)[C@H](c2ccc(-c3ccc(F)cc3)cc2)[C@@H]1CO | inconclusive: 70.3%
Cc1[nH]c2ccccc2c1C(=O)CN1C(=O)NC2(CCCCCC2)C1=O | inactive: 2.53%
O=C(CN1CCN(CCOCCO)CC1)N1c2ccccc2Sc2ccc(Cl)cc21 | active: 108%
OCCSc1nc(-c2cccnc2)nc2ccccc12 | inconclusive: 71.9%
CCOC(=O)c1c(C)[nH]c(C(=O)OCC(=O)Nc2cc(Cl)ccc2OC)c1C | inactive: -1.99%
CC(=O)N(CCC(Cc1ccccc1)c1ccc2c(c1)OCO2)Cc1ccc(Cl)cc1 (centres undefined) | inconclusive: 75.4%
C[C@@H]1CCCCO[C@@H](CN(C)CC2CCCCC2)[C@@H](C)CN([C@H](C)CO)C(=O)c2cc(NS(=O)(=O)c3ccccc3)ccc2O1 | inconclusive: 71.3%
